Measurements as given in PubChem BioAssay AID588342 (National Center for Advancing Translational Sciences (NCATS), 2011).
Hit rate of the full screen: of about 360,000 compounds, about 25,000 (6.9%) were called active. Inconclusive means that the source gave no clear call. Such entries were picked first, then a sample of the others. The call rests on the fitted dose curve; in most records, active means well fitted inhibition curve with a large enough effect; inconclusive means small, poorly fitted or top-dose-only effect; inactive means flat fitted curve, though single readings scatter. Potencies of inconclusive entries are doubtful fits and often do not repeat.

biological target: Luciferin 4-monooxygenase (Photinus pyralis) (UniProt P08659); test: qHTS profiling assay for firefly luciferase inhibitor/activator using purifed enzyme and Km concentrations of substrates (counterscreen for miR-21 project); settings: purified FLuc, luminescence inhibition; activity change, negative = inhibition: at 57.5 µM (top of the series); further: nearly all actives have a fitted effect of over 55% in size;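 on activity change, negative = inhibition: plate controls were vehicle for no effect and reference inhibitor for full effect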
UniProt P08659, sequence (P08659 whole entry, looked up): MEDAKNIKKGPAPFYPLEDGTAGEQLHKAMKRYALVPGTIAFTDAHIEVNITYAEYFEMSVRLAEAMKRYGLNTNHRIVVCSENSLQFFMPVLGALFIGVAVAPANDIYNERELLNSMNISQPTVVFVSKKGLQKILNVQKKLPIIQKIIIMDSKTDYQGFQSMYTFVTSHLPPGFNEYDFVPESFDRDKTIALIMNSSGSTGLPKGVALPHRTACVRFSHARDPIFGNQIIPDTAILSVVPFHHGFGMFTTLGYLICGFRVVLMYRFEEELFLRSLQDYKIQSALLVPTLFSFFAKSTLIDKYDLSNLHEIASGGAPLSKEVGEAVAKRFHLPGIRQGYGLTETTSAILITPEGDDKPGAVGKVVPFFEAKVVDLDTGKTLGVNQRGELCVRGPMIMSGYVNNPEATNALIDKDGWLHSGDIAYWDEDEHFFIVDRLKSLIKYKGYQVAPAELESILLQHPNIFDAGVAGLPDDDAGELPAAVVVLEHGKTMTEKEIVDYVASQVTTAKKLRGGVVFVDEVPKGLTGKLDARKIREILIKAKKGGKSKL
In short: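 Purified P. pyralis luciferase, 10 nM final, with Km-level 10 uM D-luciferin and 10 uM ATP in 50 mM Tris acetate pH 7.5, 10 mM Mg acetate, 0.01% Tween-20, 0.05% BSA; 6-point qHTS titration about 60 µM downward; luminescence read.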
Potency means the concentration at half of the fitted maximal effect; tags describe the fitted curve by direction and shape.

Compound	Potency	activity change, negative = inhibition
CCOc1ccc(NCc2nc3ccccc3n2CCOc2ccc(C)cc2)cc1	inconclusive: 12 µM [inhibitor, partial curve]	
CCc1ccc(-n2nc3ccc(NC(=O)COc4ccc(OC)cc4)cc3n2)cc1		inactive: 2%
Cn1c(=NCC(O)COc2ccccc2)sc2ccccc21 (stereo unspecified)	inconclusive: 21.3 µM [inhibitor, single point]	
Nc1nc2ccccc2[nH]1		inactive: -0.329%
CCOC(=O)c1c(NC(=O)CC)sc(C(=O)NC2CCCC2)c1C		inactive: -3.16%
O=C(Nc1ccc(F)c(Cl)c1)N1CCC(CN2CCOCC2)CC1		inactive: -5.55%
COc1ccccc1NC=C1C(=O)OC(C)(C)OC1=O	active: 10.7 µM	
Cc1nc2sccn2c(=O)c1S(=O)(=O)Nc1cc(C(F)(F)F)ccc1Cl	inconclusive: 8.49 µM [inhibitor, partial curve]	
COCCNC(=O)c1ccc(-c2nc(CS(=O)(=O)c3ccccc3)c(C)o2)cc1		inactive: -5.48%
O=C1NC(=S)S/C1=C\c1coc2ccccc2c1=O	active: 19 µM	
COc1ccc(C(=S)Nc2ccccc2)cc1	active: 13.5 µM	
CS(=O)(=O)N1CCc2cc(C(=O)Nc3ccc(C(F)(F)F)cc3)ccc21		inactive: -2.01%
CCOCCCNc1c(CC)c(C)c(C#N)c2nc3ccccc3n12		inactive: 0.35%
O=C(N/N=C/c1ccncc1)c1cccs1	inconclusive: 26.9 µM [inhibitor, partial curve]	
CNc1ncnc2sc(-c3ccccc3)cc12	inconclusive: 16.9 µM [inhibitor, partial curve]	
Cc1ccc(NC(=O)CSc2nccn2Cc2ccccc2)cc1C	inconclusive: 23.9 µM [inhibitor, single point]	
COc1ccccc1Nc1nnc(SC(C)C(=O)NC2CC2)s1 (stereo unspecified)		inactive: 3.74%
COc1cc(/C=C(\C#N)c2ccccn2)ccc1OCc1ccccc1	inconclusive: 21.3 µM [inhibitor, partial curve, poor fit]	
CCCOc1ccc(-c2cc(C(F)(F)F)c(C#N)c(SCCC(=O)O)n2)cc1	inconclusive: 8.49 µM [inhibitor, partial curve, poor fit]	
CCOC(=O)c1c(NC(=O)Cn2cc([N+](=O)[O-])cn2)sc2c1CCC2		inactive: 5.79%
CCCCONc1ncnc2nonc12		inactive: 0.14%
COC(=O)c1ccc2c(C(C)(C)O)c(C(C)(C)O)[nH]c2c1	inconclusive: 16.9 µM [inhibitor, partial curve]	
CC1=CC(=O)C(C(C)=Nc2ccccc2Cl)C(=O)O1 (stereo unspecified)	inconclusive: 23.9 µM [inhibitor, partial curve, poor fit]	
O=C(Nc1ccc2c(c1)OCCO2)C1CCN(C(=O)c2ccc(Cl)cc2)CC1	inconclusive: 23.9 µM [inhibitor, partial curve, poor fit]	
Cc1cccc(N2C(=O)SC(SC(=Nc3ccccc3)Nc3ccccc3)C2=O)c1 (stereo unspecified)	inconclusive: 15.1 µM [inhibitor, partial curve]	
COc1ccc(C)cc1Nc1ncnc2c1c(-c1ccccc1)cn2-c1ccc(C)cc1		inactive: 0.76%

Compound	Potency	activity change, negative = inhibition
Cc1cc(C)c2c(=O)[nH]c(SCC(=O)Nc3ccc(Br)cc3)nc2n1		inactive: -9.23%
CN(NS(=O)(=O)c1ccccc1)c1nc2ccccc2nc1C(F)(F)F		inactive: -0.0452%
Cc1c(C=O)c2ccccc2n1CC(=O)NCc1ccc2c(c1)OCO2		inactive: 1.46%
COc1ccc2c(Cl)c(C(=O)NCCc3ccc(S(N)(=O)=O)cc3)sc2c1		inactive: 1.17%
CCC(C)NC(=O)Cn1c(=O)n(Cc2ccc(C(=O)NCc3ccc(C)cc3)cc2)c(=O)c2ccccc21 (stereo unspecified)		inactive: 4.77%
CCN(CC(=O)NCc1cccs1)C(=O)/C=C/c1ccc(OC)cc1OC	inconclusive: 23.9 µM [inhibitor, partial curve, poor fit]	
CS(=O)(=O)Nc1ccccc1C(=O)NC1CC2CCC1C2 (stereo unspecified)		inactive: -0.0989%
Oc1ccccc1-c1cc(-c2ccc(Cl)cc2)n[nH]1	active: 0.953 µM	
CCCC(=O)Nc1ccc(NC(=O)c2ccccc2OC)cn1	inconclusive: 10.7 µM [inhibitor, partial curve, poor fit]	
CCCOc1ccccc1/C=C1\SC(N2CCCCC2)=NC1=O	active: 12 µM	
O=C(CN1C(=O)/C(=C/c2ccccc2Cl)SC1=S)NC1CCS(=O)(=O)C1 (stereo unspecified)	inconclusive: 9.53 µM [inhibitor, partial curve]	
CCOc1ccc(C(=O)Nc2ccc3nc(N4CCN(CC)CC4)cc(C)c3c2)cc1	inconclusive: 15.1 µM [inhibitor, partial curve]	
CCOC(=O)c1cc2cc(OC)ccc2nc1C	inconclusive: 23.9 µM [inhibitor, partial curve, poor fit]	
CC(=O)/C(C#N)=C1\NC(=O)C(Cc2ccccc2)S1 (stereo unspecified)	inconclusive: 16.9 µM [inhibitor, partial curve]	
COc1ccccc1C1=NOC(C)(c2nnc(Cc3ccccc3)o2)C1 (stereo unspecified)		inactive: 1.68%
Cc1ccc2occ(CC(=O)Nc3ccc(S(=O)(=O)N4CCC(C)CC4)cc3)c2c1		inactive: -5.23%
COc1ccc2occ(C(C)=O)c2c1		inactive: -2.21%
O=C(Nc1ccc(S(=O)(=O)N2CCc3ccccc32)cc1)c1ccco1		inactive: 0.439%
Cc1ccc(N(Cc2ccccc2)C(=O)Cc2ccc(S(=O)(=O)N3CCOCC3)s2)cc1	inconclusive: 23.9 µM [inhibitor, partial curve]	
Cc1nc2nc(C)c(CCC(=O)NCc3ccccc3)c(C)n2n1		inactive: -0.597%
C/C(CC(=O)Nc1ccccc1)=N\NC(=O)COc1ccc(C)cc1Br	inconclusive: 37.9 µM [inhibitor, partial curve, poor fit]	
CN(C)C(=S)SCC(=O)Nc1ccc(Cl)cc1Cl	inconclusive: 37.9 µM [inhibitor, single point]	
CCOc1ccc2[nH]c(C(=O)N/N=C/c3ccccc3OC)cc2c1	active: 15.1 µM	
S=c1[nH]nc(Nc2cccc3ccccc23)s1	inconclusive: 37.9 µM [inhibitor, partial curve, poor fit]	
COc1ccc(C(=O)CC(=O)c2ccccc2O)cc1OC	inconclusive: 19 µM [inhibitor, partial curve]	
